Data on 1 molecule can be found in paper PMC8682764 (Nucleic Acids Research, 2021).

Experiment [1] concerns the target RbBP5, 6x N-terminal histidine fusion (pETDuet-1-RBBP5) (UniProt Q15291). In words: pull-down.
In experiment [2] the target is WDR5, 6x N-terminal histidine fusion (pETDuet-1-WDR5) (UniProt P61964). In words: pull-down.

B1: GST-MLL1-SET (domain or fragment)
chain: not shown
As to B1, the binding result in experiment [1] and in experiment [2] was “binds” throughout.
